EC50 data for seven molecules are collected here from ChEMBL document CHEMBL5154759, “Discovery of Aryl Benzoyl Hydrazide Derivatives as Novel Potent Broad-Spectrum Inhibitors of Influenza A Virus RNA-Dependent RNA Polymerase (RdRp)” (J Med Chem, 2022).

This experiment deals with Influenza A virus. Put plainly: microbe, parasite or virus in culture. The conditions noted are these: (A/PR/8/34) H1N1, MDCK, 48 h.
The EC50 is the midpoint of the concentration-response curve. A high value points to a less potent agent. Molecule `COc1ccc(C(=O)NNc2c(Br)cccc2Br)cc1` returned an EC50 of 4900 nM.
As for `O=C(NNc1c(Br)cccc1Br)c1ccccc1`, the figure is 143000 nM.
`CC(C)(C)c1ccc(C(=O)NNc2c(Br)cccc2Br)cc1` returned an EC50 of 74 nM.
As for `CCc1ccc(C(=O)NNc2c(Br)cccc2Br)cc1`, the figure is 180 nM; as for `CCOc1ccc(C(=O)NNc2c(Br)cccc2Br)cc1`, 57 nM.
As for `CN(C)c1ccc(C(=O)NNc2c(Br)cccc2Br)cc1`, the figure is 461 nM.
`O=C(NNc1c(Br)cccc1Br)c1ccc(N2CCOCC2)cc1` gave a concentration giving a half-maximal response (EC50) of 53 nM.
